PubChem BioAssay AID662 (National Center for Advancing Translational Sciences (NCATS), 2007)
About 1,800 (2.5%) of roughly 71,000 compounds were called active. The shares of active, inactive and inconclusive entries below differ from those in the screen. Calls come from the whole dose curve; as a rule, active = well fitted activation curve with a large enough effect in the signal ratio, with a control signal flat (not every such curve was filed as active); inconclusive = small, poorly fitted or top-dose-only effect, or effect the other way, or a change in a side signal; inactive = flat fitted curve, though single readings scatter; the % refers to the signal ratio. Where the call is inconclusive, the potency comes from a doubtful curve fit.

Test: Cell signaling CRE-BLA (Fsk stim); for activity change, negative = inhibition: % of control where 0% means no effect
Details: CHO CRE-bla reporter (cAMP response element driving beta-lactamase), forskolin EC10, beta-lactamase ratio
Method in brief: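 CRE-bla CHO reporter cells treated with compound titration plus EC10 NKH 477 (water-soluble forskolin), incubated 3 h at 37 °C; CCF4 loading 2 h at room temperature, 460/530 nm emission ratio read, AC50 values derived for positive or negative modulators.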

[1] = activity change, negative = inhibition: at 38.2 µM (top of the series) unless noted
Potency is the fitted concentration of half-maximal effect; tags give direction and shape of the fitted curve.

Which activity change, negative = inhibition [1] does the source give for Clc1cccc(Cl)c1NC1=NCCN1 here?
Its activity change, negative = inhibition is inconclusive: -14.3%.

And the activity change, negative = inhibition (at 17.1 µM (top of the series))?
Its activity change, negative = inhibition is inactive: 6.79%.

And the activity change, negative = inhibition (at 38.2 µM (top of the series))?
The activity change, negative = inhibition was inactive: -2.1%.

For COc1ccccc1CN1CCC2(CC1)CCN(C(C)=O)CC2, which activity change, negative = inhibition [1] is on record?
The activity change, negative = inhibition was “inactive”.

With COc1ccc(C(=O)N2c3cc4c(cc3C(C)=CC2(C)C)OCO4)cc1 as the compound, how does the activity change, negative = inhibition [1] read?
Its activity change, negative = inhibition is inconclusive: -18.7%.

For COc1ccccc1NC(=O)CSc1ncnc2c1oc1ccccc12, which Potency [1] is on record?
Its Potency is active: 1 µM.

Which activity change, negative = inhibition [1] does the source give for COc1ccc(S(=O)(=O)N2CCC(C(=O)N3CCc4ccccc4C3)CC2)cc1 here?
The activity change, negative = inhibition was “inactive”.

Which activity change, negative = inhibition [1] does the source give for CCCc1[nH]nc2c1C1(CCN(C(=O)OCc3ccccc3)CC1)C(C#N)=C(N)O2 here?
Its activity change, negative = inhibition is “inactive”.

For COc1ccccc1CN(Cc1cc2cc(C)ccc2[nH]c1=O)Cc1nnnn1CC1CCCO1 (stereo not drawn), which activity change, negative = inhibition [1] is on record?
Its activity change, negative = inhibition is “inactive”.

Which Potency [1] does the source give for COc1ccc(OC)c2sc(N3CCCCC3)nc12 here?
Its Potency is inconclusive: 7.94 µM [rising, partial curve].

For Cc1cccc(NC(=O)CN2CCCN(S(=O)(=O)c3ccc(Br)s3)CC2)c1, which activity change, negative = inhibition [1] is on record?
The activity change, negative = inhibition was inconclusive: 9.64%.

For Cc1c(NC(=O)C(C)Sc2nnc(-c3ccccc3)o2)c(=O)n(-c2ccccc2)n1C (stereo not drawn), which activity change, negative = inhibition [1] is on record?
Its activity change, negative = inhibition is inconclusive: -15.2%.

With CN(C(=O)C1CCOC1)c1nnc(C2CCOC2)s1 (stereo not drawn) as the compound, how does the activity change, negative = inhibition [1] read?
Its activity change, negative = inhibition is “inactive”.

Which activity change, negative = inhibition [1] does the source give for CN(C)CCC(=O)[C@@]1(O)CC[C@H]2[C@H]3CC=C4C[C@@H](O)CC[C@]4(C)[C@H]3CC[C@]21C here?
Its activity change, negative = inhibition is inactive: -11.5% [at 7.6 µM].

For Cc1nnc2sc(-c3ccc(NC(=O)c4cccnc4)cc3)nn12, which activity change, negative = inhibition [1] is on record?
The activity change, negative = inhibition was “inactive”.

For O=C(c1ccc(=O)n(Cc2ccccc2)n1)N1CCN(C/C=C/c2ccccc2)CC1, which Potency [1] is on record?
Its Potency is inconclusive: 31.6 µM [falling, single point].

With COc1ccc(-c2[nH]ncc2-c2ccc3c(c2)OCCO3)c(O)c1 as the compound, how does the Potency [1] read?
Its Potency is inconclusive: 2.51 µM [falling, partial curve].

With O=c1c(-c2cccs2)nc2cnc(Oc3ccccc3)nc2n1Cc1cccs1 as the compound, how does the Potency [1] read?
Its Potency is inconclusive: 0.794 µM [rising, full curve].

For CCCC(C(=O)NC1CCCC1)N(Cc1cccs1)C(=O)c1snc(C(N)=O)c1N (stereo not drawn), which activity change, negative = inhibition [1] is on record?
Its activity change, negative = inhibition is “inactive”.

With O=C(c1nc2n(n1)C(c1ccc(Cl)cc1)C=C(c1ccccc1)N2)N1CCOCC1 (stereo not drawn) as the compound, how does the activity change, negative = inhibition [1] read?
Its activity change, negative = inhibition is inconclusive: -29.5% [fluorescent].

With COc1ccc(CCNC(=O)c2cc3ccccn3n2)c(OC)c1OC as the compound, how does the activity change, negative = inhibition [1] read?
The activity change, negative = inhibition was inconclusive: 27.7%.

With Cc1nc(N2CCOCC2)c2nc(-c3ccccc3)n(CCCN3CCOCC3)c2n1 as the compound, how does the Potency [1] read?
The Potency was inconclusive: 12.6 µM [rising, partial curve].

With CN1CCN(c2ncc3nc(-c4cc(F)cc(F)c4)c(=O)n(Cc4cccs4)c3n2)CC1 as the compound, how does the Potency [1] read?
The Potency was inconclusive: 0.398 µM [rising, full curve].

For COc1ccc(C(=O)COC(=O)CN2CC(=O)Oc3ccccc32)cc1Br, which activity change, negative = inhibition [1] is on record?
The activity change, negative = inhibition was inconclusive: 25.7%.

Which activity change, negative = inhibition [1] does the source give for CN(C)c1cccc(C(=O)Nc2cccc(F)c2)c1 here?
The activity change, negative = inhibition was inconclusive: -23%.

For CC1CCN(S(=O)(=O)c2ccc3c(c2)oc(=O)n3CC(=O)N2c3ccccc3CC2C)CC1 (stereo not drawn), which activity change, negative = inhibition [1] is on record?
Its activity change, negative = inhibition is inconclusive: -8.58%.

Which Potency [1] does the source give for COc1cc(C(=O)N2CCN(c3ncnc4sc(C)c(C)c34)CC2)cc(OC)c1OC here?
The Potency was inconclusive: 10 µM [rising, partial curve].

With O=C(c1cnc(N2CCN(c3ncccn3)CC2)c2ccccc12)N1CCN(c2ccccn2)CC1 as the compound, how does the activity change, negative = inhibition [1] read?
The activity change, negative = inhibition was inconclusive: -6.57%.

With O=c1cc(CSc2ccc(Cl)cc2)nc2nc[nH]n12 as the compound, how does the activity change, negative = inhibition [1] read?
The activity change, negative = inhibition was “inactive”.

With COC(=O)c1ccc(Nc2cc(C)nc3ncnn23)cc1 as the compound, how does the activity change, negative = inhibition [1] read?
Its activity change, negative = inhibition is inconclusive: 26%.

For COc1ccccc1N(CC(=O)Nc1cc(C)on1)S(=O)(=O)c1cccs1, which activity change, negative = inhibition [1] is on record?
Its activity change, negative = inhibition is “inactive”.

For COCCNc1ccnc(-c2ccccc2C(F)(F)F)n1, which activity change, negative = inhibition [1] is on record?
Its activity change, negative = inhibition is “inactive”.

For O=C(CC1Nc2ccccc2NC1=O)NC1CCCCC1 (stereo not drawn), which activity change, negative = inhibition [1] is on record?
The activity change, negative = inhibition was “inactive”.

Which activity change, negative = inhibition [1] does the source give for CCn1cc(C(=O)NCc2ccccn2)c(=O)c2cc(S(=O)(=O)N3CCCCC3)ccc21 here?
Its activity change, negative = inhibition is inconclusive: 2.55%.

Which activity change, negative = inhibition [1] does the source give for CC(NC(=O)c1ccccc1Cl)C(=O)O (stereo not drawn) here?
Its activity change, negative = inhibition is inconclusive: 15% [at 7.6 µM].

For CCC[C@@H]1O[C@@H]2C[C@@H]3[C@@H]4CCC5=CC(=O)C=C[C@@]5(C)[C@H]4[C@H](O)C[C@@]3(C)[C@@]2(C(=O)CO)O1, which activity change, negative = inhibition [1] is on record?
The activity change, negative = inhibition was “inactive”.

With Cc1ccnc(NC(=O)C2CCN(S(=O)(=O)c3cccc4nonc34)CC2)c1 as the compound, how does the Potency [1] read?
The Potency was inconclusive: 25.1 µM [rising, single point].

Which Potency [1] does the source give for Cc1cc(C)n2c(Br)c(CSc3nc4ccccc4o3)nc2n1 here?
The Potency was active: 6.31 µM.

Which activity change, negative = inhibition [1] does the source give for C/C=C/CSc1nc2c(c(=O)[nH]c(=O)n2C)n1C(C)C here?
Its activity change, negative = inhibition is inconclusive: 27.3%.

Which Potency [1] does the source give for O=c1nc2n(c3ccccc13)Cc1ccccc1-2 here?
Its Potency is inconclusive: 5.01 µM [falling, single point].

For COc1ccc2c(c1)C(C)=CC(C)(C)N2C(=O)C(C)N1C(=O)c2ccccc2C1=O (stereo not drawn), which activity change, negative = inhibition [1] is on record?
The activity change, negative = inhibition was inconclusive: 25.7%.

For Cc1cccc(S(=O)(=O)c2c(N)n(/N=C/c3cccnc3)c3nc4ccccc4nc23)c1, which activity change, negative = inhibition [1] is on record?
Its activity change, negative = inhibition is inconclusive: 14.1%.

With CCOC(=O)C1CCCN(Cc2ccc(OC)cc2OC)C1 (stereo not drawn) as the compound, how does the activity change, negative = inhibition [1] read?
The activity change, negative = inhibition was “inactive”.
